Our source for the binding signal values is publication PMC7819943, “Rice protein-binding microarrays: a tool to detect cis-acting elements near promoter regions in rice”.

Some of the results follow.

This assay deals with T1, OsWOX13 (Oryza sativa, UniProt Q5QMM3 1-267).
T1 sequence: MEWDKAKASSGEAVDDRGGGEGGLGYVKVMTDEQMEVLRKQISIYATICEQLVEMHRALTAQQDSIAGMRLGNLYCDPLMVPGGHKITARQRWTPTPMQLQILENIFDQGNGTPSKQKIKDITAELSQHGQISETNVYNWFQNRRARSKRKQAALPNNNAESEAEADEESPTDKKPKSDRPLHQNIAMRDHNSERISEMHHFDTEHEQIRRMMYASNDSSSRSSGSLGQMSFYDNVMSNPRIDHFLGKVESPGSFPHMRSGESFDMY
Nature of the assay: protein-binding microarray (RPBM); PBS, 2% BSA, 51.3 ng/ul salmon testes DNA, 50 uM zinc acetate, 200 nM TF, 25 C, 1 h; high values mean tight binding. Particulars: protein: recombinant; tags: N-terminal polyhistidine and DsRed monomer fusion (pET32a); label: CyDye5-dUTP incorporated in the synthesized complementary strand; 3' TTTTT single-stranded linker to array surface; dsDNA, one strand shown. In short, it runs like this:
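An Axon 4000B scanner gave the binding signal as per-feature fluorescence intensity in arbitrary units. This followed washing of a custom Agilent array that had been incubated for 1 h at 25 °C with 200 nM protein in PBS, 2% BSA, salmon testes DNA and 50 µM zinc acetate. The proteins were transcription factors fused at the N-terminus to polyhistidine and DsRed, expressed in E. coli BL21-CodonPlus and purified on Ni–NTA.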
With “GAGTTTATAAATTGAGATATATCCGTCCTCCATTCTCAGGCGGAGTCACCTAGTGCAG”, the binding signal was 6950 fluorescence intensity (a.u.).
On to “ACAAGTTGATGGGGACACTTTTCTTATGTAGTATATAATTCGGAGTCACCTAGTGCAG”, for which the binding signal is 3270 fluorescence intensity (a.u.).
For “TGCTTTATCAGTATAATTGGCAGTTCTCCTGCCTGTTCATCGGAGTCACCTAGTGCAG”, the binding signal is 7320 fluorescence intensity (a.u.).
With “ACAAATTAAACTCTAACTAGTATACGTATATTCACAGTCACGGAGTCACCTAGTGCAG” the figure was 15700 fluorescence intensity (a.u.); with “ATTAACATAATTGCAATGTAAGTATTAAAATTACAATGTACGGAGTCACCTAGTGCAG”, 20200 fluorescence intensity (a.u.).
On to “CAAATTGGTAAACTTGCAATAACATGATCCAATTAACCCACGGAGTCACCTAGTGCAG”, for which the binding signal is 8100 fluorescence intensity (a.u.).
With “TCCATAATTACTAGTACTCCTAGATTGCAGAGTAGATAGGCGGAGTCACCTAGTGCAG” the figure was 19800 fluorescence intensity (a.u.); with “TTCGGGATTGACTGCTTCGGCCCGGTTCCTCGACGGTAAGCGGAGTCACCTAGTGCAG”, 24100 fluorescence intensity (a.u.).
Turning to “CATTTCTATTATTATTGAACAATTTAATTGCGAGGGCGAGCGGAGTCACCTAGTGCAG”, the binding signal was 5370 fluorescence intensity (a.u.).
With “GTGATTGATGCCGCCTGGGTTAGTTCAACTATTGCTGCATCGGAGTCACCTAGTGCAG” the figure was 55400 fluorescence intensity (a.u.).
For the sequence “TTCTGATGAAGAAGACGATGATTATGATAAGAGACGCCGGCGGAGTCACCTAGTGCAG”, the binding signal is 6650 fluorescence intensity (a.u.).
With “TATCATCAATCCGCTAATTAACTGACAACGCATATTGGAGCGGAGTCACCTAGTGCAG”, the binding signal is 29400 fluorescence intensity (a.u.).
As to “ACATAGATTTGGTCCTGACATTAGTTAGAATCTTCAGATTCGGAGTCACCTAGTGCAG”, the binding signal is 4000 fluorescence intensity (a.u.).
Turning to “CCATGACCCATCAATCCATCATCCCTTTCATCTCTCATCTCGGAGTCACCTAGTGCAG”, the binding signal was 3420 fluorescence intensity (a.u.).
Take “CTGAATTTCAATTAAAAGGAAGTTGGAGTATAGGGACTTTCGGAGTCACCTAGTGCAG”: the binding signal was 6510 fluorescence intensity (a.u.).
As for “TAAAACATGATTTGAAAAGTTTTGTTAAAATGAAGGGTAACGGAGTCACCTAGTGCAG”, the binding signal is 6100 fluorescence intensity (a.u.).
For the sequence “TATTTAAATTGGATAATTTCTTATGGGTAGATTTAACTCACGGAGTCACCTAGTGCAG”, the binding signal was 27000 fluorescence intensity (a.u.).
On to “CCTCAAGGACAAATGATTGATTTACCTATTCAAAGCAATTCGGAGTCACCTAGTGCAG”, for which the binding signal is 30500 fluorescence intensity (a.u.).
Take “TGAATTACTCAATTGAATTGGTGTTATGTAATAAACTGCTCGGAGTCACCTAGTGCAG”: the binding signal is 5970 fluorescence intensity (a.u.).
On to “TGAAAGAAGAGATGATTGGGAAACACCATTAATAGGGTGGCGGAGTCACCTAGTGCAG”, for which the binding signal is 10500 fluorescence intensity (a.u.).
For the sequence “TCAGAGTGGCAATCAGTAGGTCGTCCCAGGGCCAGCGCCGCGGAGTCACCTAGTGCAG”, the binding signal is 21900 fluorescence intensity (a.u.).
With “AGTAACATCAATTTTATACGATTGATCTTTCTACTTTTCTCGGAGTCACCTAGTGCAG” the figure was 18600 fluorescence intensity (a.u.).
With “TAGTATACACAACCAATCATCGCGATCCGCCCTCGCAAACCGGAGTCACCTAGTGCAG” the figure was 9460 fluorescence intensity (a.u.); with “CTCTCTTAATTTATCGGCAATTCGGCAGAGCTATGAGGCCCGGAGTCACCTAGTGCAG”, 18900 fluorescence intensity (a.u.).
In the case of “CCGTTGATGAGACAAACCAAACAGTAGCGTGCAGGGCATCCGGAGTCACCTAGTGCAG”, the binding signal is 11700 fluorescence intensity (a.u.).
Regarding “GGTCAATCAAATACAGATTCAAAGAGGCACAGATGTGGATCGGAGTCACCTAGTGCAG”, the binding signal is 16200 fluorescence intensity (a.u.).
As to “TCTAATTTCAACTAAACTTACACATACAAACAGGCCCTTACGGAGTCACCTAGTGCAG”, the binding signal was 7140 fluorescence intensity (a.u.).
Consider “ATGATTAATACTTAATTAATTATGTGCGCTCATGGATCACCGGAGTCACCTAGTGCAG”, for which the binding signal was 56400 fluorescence intensity (a.u.).
As for “ACCTAACATCTAATTATATAGTTACCATCGTACAACGTTACGGAGTCACCTAGTGCAG”, the binding signal is 13800 fluorescence intensity (a.u.).
For the sequence “TTAATGGCCCATCAATCATTCGGTGTATTATGCAAGAGCGCGGAGTCACCTAGTGCAG”, the binding signal was 9750 fluorescence intensity (a.u.).
In the case of “TTTTAGATGATGTGACTTAATGCATATAAAACTTTTGGTCCGGAGTCACCTAGTGCAG”, the binding signal is 6460 fluorescence intensity (a.u.).
With “ACAATTTAAGCATGATTATGATCAAAGCTTAAATGAGAGGCGGAGTCACCTAGTGCAG” the figure was 12800 fluorescence intensity (a.u.); with “TGATATATGATTGTAGAACTTAAAAGTGTACTAATGTGGTCGGAGTCACCTAGTGCAG”, 14200 fluorescence intensity (a.u.); with “TTGTTAACACGCTTAATTTTAAAGCTGTTAGCATGTTAAACGGAGTCACCTAGTGCAG”, 5010 fluorescence intensity (a.u.).
For the sequence “CGCAAAATCTAATTGATGCTATGTTATCAATTTGACAACACGGAGTCACCTAGTGCAG”, the binding signal was 19800 fluorescence intensity (a.u.).
Take “TTTTCCTATCATTTGATTTATTGTTAAATATACTTTTATGCGGAGTCACCTAGTGCAG”: the binding signal was 9190 fluorescence intensity (a.u.).
In the case of “ATAATGCATGTTAATTTTGTGCGTACTATCATAGCTTCAGCGGAGTCACCTAGTGCAG”, the binding signal is 5810 fluorescence intensity (a.u.).
Turning to “TGGTACTAATTATTTTGTAAAATATGTTGGGAGCAAGGAACGGAGTCACCTAGTGCAG”, the binding signal is 8320 fluorescence intensity (a.u.).
For the sequence “ACTCGTATGATTAGGAATGGGCTTGGAGCCTTGGAGTGTCCGGAGTCACCTAGTGCAG”, the binding signal was 15100 fluorescence intensity (a.u.).
As to “TATCAATCCGAGATGGACAACAAATCTGTATAATCCTAAGCGGAGTCACCTAGTGCAG”, the binding signal is 4740 fluorescence intensity (a.u.).
With “GAAAACTGAATATTGATGATATAGAGATCAGTTCTAGATTCGGAGTCACCTAGTGCAG” the figure was 13300 fluorescence intensity (a.u.); with “GATAAATTACGATAATACCCCTATACGAATTATTATCTCTCGGAGTCACCTAGTGCAG”, 12900 fluorescence intensity (a.u.).
